About 1,200 (2.5%) of roughly 48,000 compounds were called active. About 2% were inconclusive and are not listed.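 How the source made its calls: active means activation of at least 60% and not above a set upper limit (about 1 call in 100 departs from these limits); inconclusive means activation of 40% to 60%, or above that upper limit; inactive means activation under 40%.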 The list shows a part of the results.
The molecules below were run against Probable G-protein coupled receptor 32 (Homo sapiens) (UniProt O75388) (assay: qHTS for Agonists of Human Resolvin D1 Receptor DRV1). Conditions: CHO-K1 GPR32 beta-arrestin PathHunter luminescence, 90 min; at 76.9 µM; stronger effect = higher value; zero percent set by DMSO-only wells.
Summary of the method: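 Step 1: seed CHO-K1 GPR32 beta-arrestin cells, 2,500/well, overnight at 37 °C. Step 2: add compounds, 90 min at 37 °C. Step 3: detection reagent, 1 h ambient, then luminescence.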
Further: 0% is about no effect.

Chain of UniProt O75388 (O75388 whole entry, looked up): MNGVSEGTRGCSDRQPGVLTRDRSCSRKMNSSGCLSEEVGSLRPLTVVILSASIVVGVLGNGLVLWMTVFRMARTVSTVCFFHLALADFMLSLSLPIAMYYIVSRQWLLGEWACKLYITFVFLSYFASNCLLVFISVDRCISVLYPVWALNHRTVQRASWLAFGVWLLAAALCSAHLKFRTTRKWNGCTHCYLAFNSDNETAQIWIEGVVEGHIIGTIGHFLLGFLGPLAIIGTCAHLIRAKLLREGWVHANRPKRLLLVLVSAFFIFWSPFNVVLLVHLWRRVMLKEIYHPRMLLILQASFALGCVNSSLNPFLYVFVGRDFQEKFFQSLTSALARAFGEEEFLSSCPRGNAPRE

SMILES	activation
O=C(COc1ccccc1)Nc1nnc2n1CCS2	inactive: -19.8%
COc1ccc(C)cc1Nc1c2c(nc3ccccc13)CCC2	inactive: 2.03%
CCOC(=O)C1CCN(S(=O)(=O)c2cc(-c3cc(C)no3)ccc2OC)CC1	inactive: -11%
CC(C)(C)C(=O)Cn1c(=O)n(CCCCCC(=O)NCc2ccccc2Cl)c(=O)c2sccc21	inactive: -16.7%
Cc1ccc(NC(=O)C(Cc2ccccc2)NS(=O)(=O)c2ccc3c(c2)oc(=O)n3C)cc1C (configuration not stated)	inactive: 4.78%
CC(=O)c1ccc(N2CCN(C(=O)Nc3cn(CC(C)C)c(=O)c4ccccc34)CC2)cc1	inactive: -23%
COc1cc(OC)cc(-c2nc3nc(C)c(CCC(=O)Nc4ccccc4)c(C)n3n2)c1	inactive: 25.9%
O=C(CSc1nc(-c2ccco2)nc2cc(=O)[nH]n12)Nc1ccc(F)cc1	inactive: 45.3%
Cc1ccc(C)c(NC(=O)CSc2nnc(NC(=O)Nc3ccccc3)s2)c1	inactive: -1.57%
CCc1ccc(NC(=O)Cn2c(C(=O)OC)cc3oc(C)cc32)cc1	inactive: -38.8%
COc1ccc(C2CC(=O)Nc3cc4c(cc32)OCO4)c(OC)c1 (configuration not stated)	inactive: -12.1%
CCN1CCN(Cc2nc3cc(NC(=O)c4cccc([N+](=O)[O-])c4)ccc3n2CC)CC1	inactive: -5.32%
COc1ccc(CCNC(=O)c2nc(SCc3ccc(F)cc3)ncc2Cl)cc1OC	inactive: -24.1%
CCOC(=O)N1CCC(NC(=O)c2ccc3c(c2)N(Cc2ccc(F)cc2)C(=O)c2ccccc2S3=O)CC1 (configuration not stated)	inactive: -10.7%
Cc1ccccc1OCC(=O)Nc1ccc2[nH]c(=O)sc2c1	active: 109%
CCc1ccc(C2CC(=O)c3c([nH]c(C(=O)OC4CCCCCC4)c3C)C2)cc1 (configuration not stated)	inactive: -4.92%
COc1ccc(NC(=O)CN2CCN(C3CCCCC3)C(=O)C2=O)cc1	inactive: 0.499%
Cc1ccc(CCNC(=O)C(C)n2nc(C)c3c(C)n(-c4ccc(C)cc4)nc3c2=O)cc1 (configuration not stated)	inactive: 47.3%
CCCCCCC(=O)Nc1cc2nc3c(nc2cc1C)c(=O)n(C)c(=O)n3C	inactive: 7.16%
COc1cc(Cl)c(C)cc1NC(=O)c1c(C)oc2nc(C)nc(N3CCCC3)c12	inactive: -23.3%
Cc1noc(-c2ccc(N3CCCCC3C)c([N+](=O)[O-])c2)n1 (configuration not stated)	inactive: -19.4%

SMILES	activation
O=C1CCCc2cc(S(=O)(=O)N3CCCC(C(=O)NCc4ccccc4Cl)C3)ccc2N1 (configuration not stated)	inactive: 38.7%
CCc1nnc(NC(=O)CSc2nccn2Cc2ccccc2)s1	inactive: -8.19%
O=C(Cn1c(-c2cccs2)cc2ccccc21)NCCCN1CCN(c2cccc(Cl)c2)CC1	inactive: -21.7%
Cc1ccc(-c2noc(-c3nnn(CC(=O)Nc4ccc(C)cc4Cl)c3N)n2)cc1	inactive: -2.57%
Cc1ccc(-n2c(=O)c3oc4ccccc4c3n(Cc3ccccc3)c2=O)cc1C	inactive: -9.71%
Cc1cc(C)cc(NS(=O)(=O)c2ccc3[nH]cc(C(=O)N4CCCCC4)c(=O)c3c2)c1	inactive: -10.1%
CCC(=O)N1CCc2cc(CNS(=O)(=O)c3ccccc3F)ccc21	inactive: 0.391%
COc1cc(C(=O)Nc2sc3c(c2C#N)CCCC3)c(Br)c(OC)c1OC	inactive: 7.76%
Cc1ccc(NC(=O)CCc2nc(-c3ccccc3F)no2)c(C)c1	inactive: -26.2%
CCOc1cc2c(cc1OCC)C(CC(=O)OC)N(C(=O)Nc1cc(C)cc(C)c1)CC2 (configuration not stated)	inactive: -8.69%
COc1cccc(CNC(=O)C(Cc2ccccc2)NS(=O)(=O)c2ccc3c(c2)CCN3C(C)=O)c1 (configuration not stated)	inactive: 26.8%
CCOc1ccccc1CNC(=O)c1ccc2c(c1)N(CC)CCS2	inactive: -29.2%
Cc1ccc(-n2nc(C(=O)NC(C)C)c(=O)n(C)c2=O)cc1	inactive: 3.13%
CS(=O)(=O)c1ncc(Cl)c(C(=O)N(Cc2ccc(Cl)cc2)Cc2ccco2)n1	inactive: -22.2%
Cc1cccc(OCC(=O)Nc2nnc(S(=O)(=O)N3CCCCCC3)s2)c1	inactive: 24.9%
CCCCCCCCCCCCCCCC[N+](C)(C)CC	inactive: -6.81%
Cc1cc(Cl)ccc1NC(=O)C1CCCN1S(=O)(=O)c1ccc2c(c1)CCCC(=O)N2 (configuration not stated)	inactive: 14%
Cc1ccc(-c2noc(-c3ccc(NC4CCCC4)c([N+](=O)[O-])c3)n2)cc1	inactive: -15.9%
Cc1cc(-n2c(SCc3ccccc3F)nc3[nH]ncc3c2=O)ccc1Cl	inactive: -24.7%
CCc1c(C)sc2c1CCN(C(=O)Nc1ccccc1Cl)C2c1ccc(OC)cc1 (configuration not stated)	inactive: 23%
CC(C)(C)OC(=O)N1CCC(c2nnc(SCc3ccccc3Cl)o2)CC1	inactive: -3.94%
